# In PubChem BioAssay AID651820 (National Center for Advancing Translational Sciences (NCATS), 2012):
# Where “and” joins values, the source holds several entries; their conditions need not be identical. Equal values may be shown once. In all, about 340,000 compounds went through this assay and about 12,000 (3.5%) were called active. Inconclusive results, whose numbers are uncertain, are shown with a selection of clear calls. Calls follow the shape of the dose curve; as a rule, active = well fitted inhibition curve with a large enough effect; inconclusive = small, poorly fitted or top-dose-only effect, or another doubt; inactive = no such curve, though single readings can be large or run the other way. Potencies of inconclusive entries are doubtful fits and often do not repeat.
# Test: qHTS Assay for Inhibitors of Hepatitis C Virus (HCV)
# Details: Huh7.5.1 HCVcc-Cre (HCVcc is cell-culture hepatitis C virus) infection, luciferase reporter, 44 h; activity change, negative = inhibition: at 41.8 µM (top of the series) unless noted
# Procedure, shortened: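 HCVcc-Cre virus at an moi near 0.5 was added right after compound to cells cultured 4 h from seeding (1,000 cells/well). Luciferase activity was determined 44 h later, 15 min after substrate addition at RT.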
# % is scaled to controls: 0 for no effect and ±100 for the full control effect; potency is read from the fitted curve at half-maximal effect; tags tell the direction and shape of the fitted curve.
Structure (SMILES),Potency,"activity change, negative = inhibition"
Cc1ccc(CNCC(=O)Nc2cccc(S(=O)(=O)NC3=NCCCCC3)c2)cc1,"inconclusive: 25.1 µM [inhibitor, single point]",–
COc1ccc(/C=C/C(=O)Nc2ccc(-n3nncc3-c3ccccc3)cc2)cc1OC,active: 12.6 µM,–
Cc1ccc(-n2c(-c3ccccc3)c[n+]3c2CCC3)cc1,–,inactive: -28.9%
COC(=O)C1CCN(C(=O)COC(=O)c2ccc(OC)c(S(=O)(=O)N3CCCc4ccccc43)c2)CC1,–,inactive: 14.7%
COc1ccc(OC)c(Nc2ncnc3sccc23)c1,"inconclusive: 6.31 µM [inhibitor, partial curve]",–
COc1cc(OC)c(NC(=O)c2cncn2-c2ccc(F)cc2)cc1Cl,"inconclusive: 11.2 µM [inhibitor, partial curve]",–
CCCn1c(=N)n(CCOc2ccc(OC)cc2)c2ccccc21,"inconclusive: 31.6 µM [inhibitor, single point]",–
O=C(N/N=C/c1ccccc1Cl)c1[nH]c2ccc(Br)cc2c1-c1ccccc1,active: 3.98 µM,–
O=C(Nc1nc2ccc([N+](=O)[O-])cc2s1)c1c(F)cccc1F,"inconclusive: 0.501 µM [inhibitor, partial curve, poor fit]",–
O=C(Nc1ccc(Cl)cc1F)C1CCN(S(=O)(=O)c2cccc3nonc23)CC1,"inconclusive: 10 µM [inhibitor, partial curve]",–
COc1ccc(N=C2SC(C(=O)N3CCN(c4ccccc4)CC3)CC(=O)N2C)cc1 (configuration not stated),–,inactive: 2.83%
COc1ccccc1N(C)S(=O)(=O)c1ccc(C(=O)NCc2ccccc2CN2CCCC2)cc1,"inconclusive: 31.6 µM [inhibitor, single point]",–
Cc1csc(SC(C)C(=O)Nc2ccc(S(=O)(=O)N3CCCC3)cc2)n1 (configuration not stated),"inconclusive: 12.6 µM [inhibitor, single point] and inconclusive: 14.1 µM [inhibitor, partial curve]",–
CC(=O)c1cccc(NC(=O)Cc2ccc3c(c2)CCCC3)c1,"inconclusive: 31.6 µM [inhibitor, single point]",–
CCOc1ccc(OCc2ccc(C(=O)N3CCCCC3)o2)cc1,"inconclusive: 22.4 µM [inhibitor, single point]",–
CC(C)CCC(C)NC(=O)CN1C(=O)NC(C)(c2ccc3ccccc3c2)C1=O (configuration not stated),"inconclusive: 31.6 µM [inhibitor, single point]",–
O=C1c2cccc(OCC(=O)N3N=C(c4cccs4)CC3c3ccc(F)cc3)c2CCN1Cc1cccnc1 (configuration not stated),"inconclusive: 22.4 µM [inhibitor, single point]",–
